Laboratory results reported in paper PMC4336329 (PLoS ONE, 2015).
The whole screen tested about 310,000 compounds, of which about 2,200 (0.71%) showed an effect of 50% or more. The effect is printed as a negative number. Some of the results follow.

The compounds below were run against human ether-à-go-go-related gene (hERG) potassium channel (human, UniProt Q12809) (assay: primary screen, population patch clamp on CHO cells stably expressing hERG).
Sequence of human ether-à-go-go-related gene (hERG) potassium channel (Q12809 whole entry, looked up): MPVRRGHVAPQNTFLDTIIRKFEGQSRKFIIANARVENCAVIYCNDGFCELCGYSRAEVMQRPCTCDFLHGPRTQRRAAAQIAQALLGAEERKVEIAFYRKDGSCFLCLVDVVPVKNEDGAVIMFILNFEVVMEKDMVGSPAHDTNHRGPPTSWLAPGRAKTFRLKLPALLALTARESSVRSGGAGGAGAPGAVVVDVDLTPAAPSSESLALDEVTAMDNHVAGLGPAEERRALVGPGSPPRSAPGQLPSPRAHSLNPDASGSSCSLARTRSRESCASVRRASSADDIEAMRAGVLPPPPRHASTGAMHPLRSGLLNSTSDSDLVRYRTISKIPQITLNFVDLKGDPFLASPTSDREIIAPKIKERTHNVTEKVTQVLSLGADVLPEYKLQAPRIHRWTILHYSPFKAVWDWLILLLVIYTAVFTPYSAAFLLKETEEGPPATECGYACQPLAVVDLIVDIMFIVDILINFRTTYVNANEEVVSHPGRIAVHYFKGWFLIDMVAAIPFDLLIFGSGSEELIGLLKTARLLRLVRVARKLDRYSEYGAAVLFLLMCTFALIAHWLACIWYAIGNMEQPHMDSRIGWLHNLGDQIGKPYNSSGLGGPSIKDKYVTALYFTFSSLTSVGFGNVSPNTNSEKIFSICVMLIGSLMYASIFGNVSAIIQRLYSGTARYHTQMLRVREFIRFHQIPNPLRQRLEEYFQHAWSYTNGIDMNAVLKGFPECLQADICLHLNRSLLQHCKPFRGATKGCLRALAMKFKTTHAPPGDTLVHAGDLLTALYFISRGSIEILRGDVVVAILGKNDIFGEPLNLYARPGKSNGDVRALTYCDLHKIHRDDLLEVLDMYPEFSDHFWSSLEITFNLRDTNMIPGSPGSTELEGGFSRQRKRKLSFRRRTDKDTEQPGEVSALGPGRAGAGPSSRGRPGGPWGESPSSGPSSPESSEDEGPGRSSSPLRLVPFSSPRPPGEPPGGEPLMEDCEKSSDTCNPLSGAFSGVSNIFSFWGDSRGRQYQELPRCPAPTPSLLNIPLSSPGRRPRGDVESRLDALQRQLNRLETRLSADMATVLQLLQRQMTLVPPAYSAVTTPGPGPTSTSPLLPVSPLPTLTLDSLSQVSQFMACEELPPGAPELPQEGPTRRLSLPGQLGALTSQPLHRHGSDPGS

SMILES	hERG current change (%, negative = inhibition) at 1uM
O=C(N/C(=C/c1cccnc1)C(=O)N1CCOCC1)c1ccccc1	11%
O=C(NCc1ccccn1)c1cc(Cl)ccc1OCc1ccccc1	4.33%
COc1ccc(NC(=O)Cn2cccc2)cc1Cl	5.11%
O=C(/C=C/Nc1ccccc1)c1ccccc1	9.71%
COC(=O)CNC(=O)CSc1nnc2cc(C)c3ccccc3n12	-0.382%
CCOC(=O)C1CCN(S(=O)(=O)c2ccc(OCC(=O)OC)cc2)CC1	1.35%
COc1ccccc1NC(=O)NC1CCCc2ccccc21 (centres unmarked)	1.78%
CN(C)CCNC(=O)Nc1ccc(Cl)c(Cl)c1	-7.74%
O=C(Nc1ccccc1)N(c1ccccc1)C1C=CS(=O)(=O)C1 (centres unmarked)	15.5%
Cc1ccccc1NC(=O)CC1SC(=O)N(c2ccccc2)C1=O (centres unmarked)	12.4%
CCCC1=NN2C(=N)/C(=C\c3cc(C)n(-c4cc(C)cc(C)c4)c3C)C(=O)N=C2S1	1.66%
COc1ccccc1NC(=O)CCN1C(=O)c2ccccc2S1(=O)=O	4.45%
CSc1ccc(/C=N/Nc2nc(C)cc(=O)[nH]2)cc1	-17.9%
Cc1ccc(OC(=O)c2sc3ncn(C)c(=O)c3c2C)cc1	0.317%
Cc1cc(NC(=O)c2ccco2)ncc1NC(=O)Cc1ccccc1	5.29%
CC[C@@]1(c2ccccc2OC)ON(c2ccccc2C(F)(F)F)C1=O	8.31%
CCOc1ccc(Nc2nc(NCc3ccco3)nc(N)c2[N+](=O)[O-])cc1	8.43%
C1COCCO1.O=C(Nc1nc(-c2ccc(S(=O)(=O)N3CCOCC3)cc2)cs1)c1ccccc1	7.55%
CCOC(=O)N1CCN(S(=O)(=O)c2ccc3[nH]c(=O)sc3c2)CC1	11.8%
CSCCC1NC(=O)N(CC(=O)Nc2ccc(Br)cc2Br)C1=O (centres unmarked)	0.132%
O=C(c1ccco1)N1CCN(C(=O)C(Sc2ccccc2)c2ccccc2)CC1 (centres unmarked)	-9.11%
COc1ccc(N2C(=O)CSCC2=O)cc1OC	11.1%
COc1ccc(NC(=O)c2ccc3c(c2)C(=O)N(CC2CCCO2)C3=O)cc1O (centres unmarked)	-0.122%

SMILES	hERG current change (%, negative = inhibition) at 1uM
COc1ccc(OCC(=O)N/N=C/c2ccc(OC)c(OC)c2C(=O)O)cc1	7.14%
Cc1nc(NC(=O)C2CC2)sc1C(=O)Nc1ccccc1	11.6%
COc1cc(NC(=S)NC(=O)C(C)C)ccc1NC(=O)c1cc2ccccc2o1	5.69%
CC(C)CC(CO)N1CCN(C(=O)c2cccc(C(F)(F)F)c2)CCC1=O (centres unmarked)	11.8%
COc1ccc(NC(=O)c2ccc(-n3nc(C)c[n+]3[O-])cc2)cc1	7.94%
CCC(C(=O)Nc1sc(C(N)=O)c(C)c1C(=O)OC)c1ccccc1 (centres unmarked)	2.21%
CCOC(=O)C1CCN(CC(O)COCc2cccs2)CC1 (centres unmarked)	-23.6%
CCC1(c2ccc(F)cc2)NC(=O)N(CC(=O)NCc2ccc(C)cc2)C1=O (centres unmarked)	10.2%
COc1ccc(C2CC(O)(C(C)(C)O)NO2)cc1 (centres unmarked)	10.8%
CC(C)CN1C(=O)C(=O)N(CC(=O)c2ccc3c(c2)OCO3)C1=O	2.78%
CC(C)(C)C(=O)N1CCN(c2nc3ccccc3o2)CC1	3.91%
COc1cccc(CC(NC(C)=O)C(=O)NC2CCN(C(=O)C3CC3)CC2)c1OC (centres unmarked)	18.9%
O=C(CN1C(=O)C2CCCCC2C1=O)Nc1ccc(S(=O)(=O)Nc2ncccn2)cc1 (centres unmarked)	21.8%
CS(=O)(=O)N(CC(=O)N/N=C/c1cc([N+](=O)[O-])ccc1Cl)c1ccccc1	11.5%
O=C(O)/C(=C\c1ccccc1)c1ccc2ccccc2c1	9.78%
C=CCn1c(=S)[nH]c2sccc2c1=O	15%
Cc1ccccc1C(=O)N1CCC(C(=O)Nc2ccc(F)cc2)CC1	8.49%
CC(=O)C[C@H]1c2ccccc2S(=O)(=O)N1C1CCCCC1	3.92%
Cc1ccsc1C(=O)C1CCCN(Cc2cccn2-c2ccc(Cl)cn2)C1 (centres unmarked)	-84.3%
CC(=O)Nc1ccc(NC(=O)c2ccccc2N(C)S(=O)(=O)c2ccc(C)cc2)cc1	11%
Cc1cc(C)cc(OCC(=O)O/N=C(\N)c2ccccc2Cl)c1	2.43%
Cl.NCCCC[C@H](NC(=O)C1CCNCC1)c1nnc([C@@H](N)CO)o1	10.8%
Cc1ccccc1N(CC(=O)NC1CCCC1)C(=O)CS(=O)CC(=O)Nc1ccc2c(c1)OCO2 (centres unmarked)	2.44%

SMILES	hERG current change (%, negative = inhibition) at 1uM
C(=N\Nc1nc2ccccc2[nH]1)/c1cccc2nccnc12	3.06%
CCc1cccc(C)c1NC(=O)CSc1nnc(-c2ccco2)n1N	3.97%
Cc1ccc(C)c(C(=O)C(C)OC(=O)CN2C(=O)NC3(CC(C)CC(C)(C)C3)C2=O)c1 (centres unmarked)	21.3%
O=C(CNC(=S)N(CCCN1CCOCC1)Cc1cccs1)NCCN1CCOCC1	13.9%
CCOC(=O)Cn1c(=O)n(Cc2ccc(C)cc2)c(=O)c2cccnc21	7.97%
CCn1cc(/C=C/C(=O)c2ccc(O)cc2)c(C)n1	5.24%
COc1cc(/C=C2\SC(=S)N(CC(=O)NC3=NCCS3)C2=O)cc(OC)c1OC	8.3%
COCCN(C(=O)COC(=O)c1cc2c(s1)CCC2)c1c(N)n(Cc2ccccc2)c(=O)[nH]c1=O	4.11%
COC(=O)c1cc(OC)c(OC)cc1NC(=O)Nc1ccc(OC)cc1	7.13%
Cc1noc(C)c1S(=O)(=O)N1CCCC(C(=O)NCCc2ccc(Cl)cc2)C1 (centres unmarked)	6.81%
COc1ccc2nc(-c3ccccc3)cc(C(=O)OCC(=O)N3CC(C)OC(C)C3)c2c1 (centres unmarked)	8.15%
COc1ccc(Oc2cccc(Cl)c2CNC(=O)c2ccccc2C(=O)O)cc1	10.3%
COCC(=O)Nc1cccc2ccccc12	11.5%
COc1ccc(C(CCO)NC(=O)c2cccs2)cc1OC (centres unmarked)	-2.3%
COc1ccccc1C(CNC(=O)c1ccc(-c2ccccc2Cl)o1)N1CCCC1 (centres unmarked)	-31.4%
O=C(NCc1ccccn1)C12CC3CC(CC(C3)C1)C2	12.8%
Cc1ccc(NC(=S)NC(NC(=O)Cc2cccc3ccccc23)C(Cl)(Cl)Cl)cc1 (centres unmarked)	8.44%
COCCCNS(=O)(=O)c1ccc(OC)c(Cl)c1Cl	7.95%
Cc1ccc(-n2ncc(C#N)c2/N=C/N2CCOCC2)cc1	2.97%
COc1ccc(CCn2c(NN=C3CCCC3)nc3c2c(=O)[nH]c(=O)n3C)cc1	9.32%
CCOC(=O)C1=C(CP(=O)(c2ccccc2)c2ccccc2)NC(=O)NC1c1ccc(OC)cc1 (centres unmarked)	0.262%
NNC(=S)NC1CC2CC1C1C=CCC21 (centres unmarked)	13.6%
COc1ccccc1N1CC(C(=O)Nc2nnc(SC)s2)CC1=O (centres unmarked)	7.83%

SMILES	hERG current change (%, negative = inhibition) at 1uM
CCN(CC)c1nc(N)c2c(N)n(-c3ccccc3C)c(=S)c(C#N)c2c1C#N	5.61%
CC1(C)CC(=O)c2sc(NC(=O)Cc3cccs3)nc2C1	-0.543%
CC(NC(=O)CN1CCN(Cc2ccc(Cl)cc2)C1=O)c1ccc2c(c1)OCCO2 (centres unmarked)	4.39%
COc1ccc(NC(=O)Nc2cnccn2)cc1	6.42%
CCOC(=O)C1=C(C)NC(=O)NC1c1ccc2c(c1)OCO2 (centres unmarked)	2.46%
O=C(CCN1CCOCC1)NNC(=O)Nc1cccc(Cl)c1	8.06%
Br.CC(Sc1nnc(COc2ccc3ccccc3c2)n1C)C(=O)O (centres unmarked)	7.69%
Cn1cccc1C(=O)NC(=O)COC(=O)C12CC3CC(CC(O)(C3)C1)C2	1.34%
O=C(NC1CCCCCC1)c1cccnc1Sc1ccccc1	5.32%
COc1ccccc1C(=O)Nc1ccc(NC(=O)c2ccco2)cn1	12.7%
COc1ccccc1N(CC(=O)Nc1ccccc1C)S(C)(=O)=O	12.1%
NS(=O)(=O)c1ccc(CCNC(=O)CSc2nc3ccsc3c(=O)n2CC(=O)O)cc1	8.4%
Cc1cc(OCc2ccc([N+](=O)[O-])cc2)c2c3c(c(=O)oc2c1)CCCC3	9.71%
COC(=O)[C@@H]1C[C@@]2(O)[C@@H](O)[C@@H](O)[C@@H](O)C[C@H]2N1CC(c1ccccc1)c1ccccc1	13.1%
COc1ccc(CCNC2=CC(=O)CC(C)(C)C2)cc1	-1.85%
COc1ccc(CNc2ncnc3sccc23)cc1OC	12%
CCCCCCCSc1nnc(-c2ccccc2N)c(=O)[nH]1	9.75%
COc1ccc(CCNc2nc(N3CCOCC3)nc(N3CCOCC3)n2)cc1OC	7.52%
O=C(COc1ccccc1[N+](=O)[O-])NNC(=O)Nc1cccc2ccccc12	10.1%
Clc1ccc(-c2nn3cnnc3s2)c(Cl)c1	1.87%
